PubChem BioAssay AID1030 (National Center for Advancing Translational Sciences (NCATS), 2008)
Hit rate of the full screen: of about 220,000 compounds, about 16,000 (7.3%) were called active. Inconclusive means that the source gave no clear call. Such entries were picked first, then a sample of the others. Calls follow the shape of the dose curve; as a rule, active = well fitted inhibition curve with a large enough effect (not every such curve was filed as active); inconclusive = small, poorly fitted or top-dose-only effect, or another doubt; inactive = no such curve, though single readings can be large or run the other way. Potencies of inconclusive entries are left out as doubtful fits.

Each molecule was assayed against Aldehyde dehydrogenase 1A1 (Homo sapiens) (UniProt P00352) (assay: qHTS Assay for Inhibitors of Aldehyde Dehydrogenase 1 (ALDH1A1)). Conditions: Purified ALDH1A1, NADH fluorescence, propionaldehyde substrate; series mostly up to 75.3 µM; activity, negative = inhibition: at the top concentration.
Sequence of UniProt P00352 (P00352 whole entry, looked up): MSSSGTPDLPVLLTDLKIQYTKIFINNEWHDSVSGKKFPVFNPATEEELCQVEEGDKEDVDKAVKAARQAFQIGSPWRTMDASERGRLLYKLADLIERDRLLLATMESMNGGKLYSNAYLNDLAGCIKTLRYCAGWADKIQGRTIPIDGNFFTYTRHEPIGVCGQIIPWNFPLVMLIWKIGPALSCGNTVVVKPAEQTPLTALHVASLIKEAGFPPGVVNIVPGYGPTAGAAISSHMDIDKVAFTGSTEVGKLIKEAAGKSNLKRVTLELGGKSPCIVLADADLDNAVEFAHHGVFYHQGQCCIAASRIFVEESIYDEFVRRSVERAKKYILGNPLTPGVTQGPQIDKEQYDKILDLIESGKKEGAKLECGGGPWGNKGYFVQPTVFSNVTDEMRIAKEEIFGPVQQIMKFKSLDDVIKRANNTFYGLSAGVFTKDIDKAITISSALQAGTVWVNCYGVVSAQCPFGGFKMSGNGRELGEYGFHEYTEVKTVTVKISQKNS

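For activity, negative = inhibition in this document: plate controls were no enzyme wells and a reference inhibitor.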
Potency is read from the fitted curve at half-maximal effect; tags tell the direction and shape of the fitted curve.

Row | Structure (SMILES) | activity, negative = inhibition | Potency
1 | COc1cccc(-n2c(SCC(=O)N3CCOCC3)nnc2-c2c[nH]c3ccccc23)c1 | inactive: 1.52% | –
2 | CN(C(=O)COc1nnc(-c2cccs2)c(-c2cccs2)n1)c1ccccc1 | – | inconclusive [inhibitor, partial curve, poor fit]
3 | Cc1c(C)n(Cc2ccccc2)c2ccc(C(=O)OCCCN(C)C)cc12 | – | inconclusive [inhibitor, single point]
4 | O=S(=O)(NCc1csc(-c2ccccc2)n1)c1ccc(Cl)s1 | inactive: -2.88% | –
5 | COc1ccc(S(=O)(=O)N2CCCCC2)cc1NC(=O)CSc1nccn1C | – | inconclusive [inhibitor, single point]
6 | CC(C)(C)C1CCc2onc(C(=O)Nc3cccnc3)c2C1 (configuration not stated) | inactive: -0.622% | –
7 | CCOc1ccc2oc(=O)cc(C)c2c1 | – | inconclusive [inhibitor, partial curve]
8 | O=C1c2ccccc2C(=O)N1CCCc1nc2ccccc2c(=O)n1Cc1ccco1 | – | inconclusive [inhibitor, partial curve]
9 | CCOC(=O)N1CCC(=NNS(=O)(=O)c2cccc([N+](=O)[O-])c2)CC1 | – | active: 10 µM
10 | COc1ccc(/C=N/NC(=O)c2ccc(-c3ccccc3)cc2)cc1O | – | inconclusive [inhibitor, single point]
11 | COC(=O)CC1[C@@]2(C)C[C@]34OC5(C)OC6(C7CC(=O)OC(c8ccoc8)[C@]7(C)CCC6(O5)[C@]13C)C(OC(C)=O)[C@]4(OC(C)=O)C2OC(C)=O (some centres not stated) | inactive: 10.4% | –
12 | CCN(CC)C(=O)c1sc2nc(Cc3ccccc3)[nH]c(=O)c2c1C | – | inconclusive [inhibitor, single point]
13 | CCN1CC(O)=C(c2nc3ccccc3s2)C1=N | – | inconclusive [inhibitor, single point]
14 | COc1cc(C(=O)Oc2ccc3c(OC)c4ccoc4nc3c2OC)cc(OC)c1OC | inactive: 3.8% | –
15 | COc1cc(/C=C(\C#N)c2ccccn2)ccc1OCc1ccc(Cl)cc1 | inactive: 141% | –
16 | COc1ccc(OC)c2[nH]c(=O)c(CCNC(=O)c3cc4ccccc4o3)cc12 | – | inconclusive [inhibitor, full curve]
17 | Cc1ccc(Cc2cnc(NC(=O)/C(C#N)=C/c3ccc(-c4cccc([N+](=O)[O-])c4)o3)s2)cc1 | inactive: 0.468% | –
18 | CC(C)=CCC/C(C)=C\COc1c2ccoc2cc2oc(=O)ccc12 | – | inconclusive [inhibitor, single point]
19 | Cc1cc2n(n1)C(c1ccccc1Cl)Nc1ccccc1-2 (configuration not stated) | – | inconclusive [inhibitor, single point]
20 | Cc1ccc(S(=O)(=O)c2cc3ccccc3oc2=O)cc1 | – | inconclusive [inhibitor, single point]
21 | CCC(CO)NCC#Cc1ccccc1 (configuration not stated) | inactive: 6.3% | –
22 | S=C(NC1CCCCC1)NC1CC2CCC(C1)N2Cc1ccccc1 (configuration not stated) | – | inconclusive [inhibitor, single point]
23 | O=C1/C(=C/c2ccncc2)SC(=S)N1C1CCS(=O)(=O)C1 (configuration not stated) | – | active: 22.4 µM
24 | COc1cccc(C2C(C#N)=C(N)Oc3c2oc(CO)cc3=O)c1 (configuration not stated) | inactive: 8.27% | –

Row | Structure (SMILES) | activity, negative = inhibition | Potency
25 | CCCSc1nnc2nc3c(nn12)c1ccccc1n3C | – | inconclusive [inhibitor, single point]
26 | C=CCOc1ccc(C2NC(=S)NC3=C2CCc2ccccc23)cc1 (configuration not stated) | – | active: 1 µM
27 | O=C(CN1C(=O)C2C3C=CC(C3)C2C1=O)NC1CCCc2ccccc21 (configuration not stated) | – | inconclusive [inhibitor, single point]
28 | CCCCS(=O)(=O)Nc1ccc(C)cn1 | – | inconclusive [inhibitor, partial curve]
29 | CCOc1ccccc1NC(=S)NCC1CCCO1 (configuration not stated) | inactive: -11.1% | –
30 | Cc1ccc(S(=O)(=O)N(CC(=O)NN=C2CCN(C)CC2)c2ccc(F)cc2)cc1 | – | inconclusive [inhibitor, single point]
31 | O=C(Nc1ncc(Cc2ccc(C(F)(F)F)cc2)s1)c1ccc(-c2cccc([N+](=O)[O-])c2)o1 | inactive: 7.59% | –
32 | Cc1ccc(C(=O)N2CCN(c3ccc(NC(=O)c4ccc(Br)o4)cc3)CC2)cc1 | – | inconclusive [inhibitor, single point]
33 | COc1ccc(C2=NOC(C(=O)NCc3ccco3)C2)cc1OC (configuration not stated) | – | inconclusive [inhibitor, single point]
34 | N#C/C(=C\c1cccc(Cl)c1)c1n[nH]c(Cn2cncn2)n1 | inactive: -7.37% | –
35 | CSc1nnc(-c2sc(-c3ccccc3)nc2C)n1C | – | inconclusive [inhibitor, partial curve]
36 | COc1ccc(NC(=O)N2CC[C@@]3(CCCN(C(=O)c4ccc(OC)cc4)C3)C2)cc1 | inactive: -9.34% | –
37 | O=C(COC(=O)C1CC2C=CC1C2)Nc1cccc(S(=O)(=O)N2CCCCC2)c1 (configuration not stated) | – | inconclusive [inhibitor, single point]
38 | O=C(C1CC1)N1CCC(c2nc(-c3ccc(S(=O)(=O)N4CCCC4)cc3)no2)CC1 | – | inconclusive [inhibitor, single point]
39 | COc1ccc(C(=O)N2CCC[C@@]3(CCN(C(=O)Nc4ccccc4)C3)C2)cc1 | inactive: -3.81% | –
40 | CCOC(=O)c1ccc(N/C=C/C(=O)C(C)(C)C)cc1 | inactive: -6.89% | –
41 | CC/C=C\C/C=C\C/C=C\C/C=C\C/C=C\CCCCCC(=O)O | inactive: -10.7% | –
42 | O=C(c1ccccc1)c1c[nH]cc1-c1ccccc1 | – | inconclusive [inhibitor, single point]
43 | CC(C)(C)OC(=O)N/N=C\c1cccnc1 | inactive: 4.37% | –
44 | Cc1ccc(/C=C(\C#N)C(=O)NCC2CCCO2)o1 (configuration not stated) | inactive: -20.2% | –
45 | C(=C\c1nnc(-c2cccs2)o1)/c1ccccc1 | – | inconclusive [inhibitor, single point]
46 | CCOc1ccc(N2C(=O)Nc3ccccc3C2(O)C(=O)NCc2ccc3c(c2)OCO3)cc1 (configuration not stated) | – | inconclusive [inhibitor, partial curve]
47 | COC(=O)c1cccc(NC(=O)/C=C/c2ccc([N+](=O)[O-])cc2)c1 | – | inconclusive [inhibitor, single point]
